Results as given in paper PMC12136788.
This is one part of the list.

T1: UNK ZnF1-6 (called full-length) (human, UniProt Q9C0B0 30-357)
T1 sequence: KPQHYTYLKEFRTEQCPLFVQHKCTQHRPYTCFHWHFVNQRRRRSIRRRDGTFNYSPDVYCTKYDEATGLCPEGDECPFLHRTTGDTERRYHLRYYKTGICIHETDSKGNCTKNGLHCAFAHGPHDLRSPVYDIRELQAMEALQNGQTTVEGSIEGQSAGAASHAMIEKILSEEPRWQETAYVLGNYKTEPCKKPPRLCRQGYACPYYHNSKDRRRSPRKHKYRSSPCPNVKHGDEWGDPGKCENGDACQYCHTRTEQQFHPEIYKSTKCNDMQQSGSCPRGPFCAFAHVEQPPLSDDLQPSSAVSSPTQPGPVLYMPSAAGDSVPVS

B1: chr3:124966548:124966651:-|3pUTR|ENSG00000173706|unk|total|mutant (ssRNA)
RNA: GGGAGUUCUACAGUCCGACGAUCAGGAAGAAUGCAAAGUUCAGUAUUUCAAUACUUUGUAUUUUACUUGAAAUUACCCUCCGCCGCAUCUUUUUUUUCCUGUCUGAAAGCUUUUGUGUGGAUGAGAAGGGACAUUUCAUUUCCCAACAGAGGAUUGAGCAUCA
B2: chr1:119913532:119913650:-|3pUTR|ENSG00000134250|msi1|total|mutant (ssRNA)
RNA: GGGAGUUCUACAGUCCGACGAUCUCAUGCUCUUGGCAAUUUCUUUGACUUUCUUUUAAGGGCAGAAGCAUUUCCGUUAAUUGCCGAUAAAGAACCGUUUUCUUCCUCUUCUCCUUGGGCCAGUUAAUAAUUGGUCCAUGGCUACAACAGAGGAUUGAGCAUCA
B3: ENSG00000107863:be:win_5351|CDS|ENSG00000107863|bound_else_gene|NA|bound_elsewhere_windowed (ssRNA)
RNA: GGGAGUUCUACAGUCCGACGAUCGGAAUCACAAAGUGAAUGCCGAGACUGCUAAAAGGAAAAGCAUCCGGCGCAGACAUACACUAGGAGGGCACAGAGAUGCUACCGAAAUCAGCGUUUUGAAUUUUUGGAAAGUGCAUGAGCCAACAGAGGAUUGAGCAUCA
B4: chr6:46858128:46859523:-|CDS|ENSG00000069122|control|control|control (ssRNA)
RNA: GGGAGUUCUACAGUCCGACGAUCAGCUGUGGUGUGGAAAUCGGUGACCAAGAACCGGACUUCUUAUAUGCGCCACACCUGCAUAGUGAAUAUCGCUGCCUCCCUUCUGGUCGCCAACACCUGGUUCAUUGUGGUCGCUGCCAUCAACAGAGGAUUGAGCAUCA
B5: ENSG00000107863:be:win_6501|3pUTR|ENSG00000107863|bound_else_gene|NA|bound_elsewhere_windowed (ssRNA)
RNA: GGGAGUUCUACAGUCCGACGAUCAUACCAGAUUUGAUAUAAUGUUGUAACAUAGGUGUGUAGAUAGUGGAUCCUGGAUGGAACUGGCUUCUUUAUCGAGAAGAAUAUAAUUCUGCAUGAGGACUUAAUGAAUCCAAACCUGUGCAACAGAGGAUUGAGCAUCA
B6: ENSG00000163902:stop:overlap|stop_codon|ENSG00000163902|stop_codon|NA|stop_codon (ssRNA)
RNA: GGGAGUUCUACAGUCCGACGAUCUCAUCUCAGGAAAGCGCCAGGAGCUGGUCACCAAGAUCGACCACAUCCUGGAUGCCCUGUAGCCCCUGCCCGCAUCCUCCAGGGGGCCCAGGGUGCCUGCACUUUGCUGUGGCAGGCAGACAACAGAGGAUUGAGCAUCA
B7: ENSG00000198589:be:win_1351|CDS|ENSG00000198589|bound_else_gene|NA|bound_elsewhere_windowed (ssRNA)
RNA: GGGAGUUCUACAGUCCGACGAUCAUGCUCCAGGAUGUAAAGGCAGUUUUAACACAUUCCAUCCAAAGUGCAAUGCAUUCAAUUGGAGGAGUACAAGUACUAUUUCCACUUUUUGCACAGUUGGAUUACAGGCAAUAUUUGUCUCAACAGAGGAUUGAGCAUCA
B8: chr22:21921976:21922077:-|3pUTR|ENSG00000100034|msi1|total|mutant (ssRNA)
RNA: GGGAGUUCUACAGUCCGACGAUCGACUGCAGUGGGCUCGGACCGGCCCAUUGAGGUUUUCCGAAAAGCAGGAUUUGUUUUGUCCGGGAGGCAUGAUUUUGGUGAGAUCUUUCUGGAAGAGUUUUCCGCCUCUUUGUGAUGCUGCAACAGAGGAUUGAGCAUCA
B9: ENSG00000198589:be:win_6701|CDS|ENSG00000198589|bound_else_gene|NA|bound_elsewhere_windowed (ssRNA)
RNA: GGGAGUUCUACAGUCCGACGAUCUGUUUCCUUGGGUCAUCACUAAUUAUGAAUCAGAAGAACUGGAUCUUACCUUGCCCACCAACUUCAGAGAUUUGUCCAAGCCAAUAGGAGCUCUGAACCCAAAAAGAGCAGCAUUCUUCGCAACAGAGGAUUGAGCAUCA
B10: chr2:45599705:45599806:-|CDS|ENSG00000068784|msi1|FALSE|unique (ssRNA)
RNA: GGGAGUUCUACAGUCCGACGAUCCUCAUAUGUUCUCUUUGUGGUUUGAUAGAAUAGCUCUGUGGCUAUUGCUGAUACUGCUUUAGAAGACAGAAAAAAUAAAUUGGAUACUGUACAGACUCUGAAAACAGCCAAGACAAAACACAACAGAGGAUUGAGCAUCA
B11: chr16:68014110:68014412:-|CDS|ENSG00000263201|control|control|control (ssRNA)
RNA: GGGAGUUCUACAGUCCGACGAUCAGGCGUGCUCCCAAGAGACGUCAAGCUACGAUAGAGUCAGAUAAAGACCUGGGUUGCUCUAGCCCCAAAAUUCGGCGCUUGGAGCAUCGUGGCAGGAGACUGACCCCACAGAAGCUUGCUCAACAGAGGAUUGAGCAUCA
B12: chr9:114598126:114598323:+|3pUTR|ENSG00000136888|msi1|FALSE|unique (ssRNA)
RNA: GGGAGUUCUACAGUCCGACGAUCUCUUUGUAACCUGUGUGAAGCAGCAGCCAGCCUUAAAGUAGUCCAUUCUUGCUAAUGGUUAGAACAGUGAAUACUAGUGGAAUUGUUUGGGCUGCUUUUAGUUUCUCUUAAUCAAAAUUACAACAGAGGAUUGAGCAUCA
B13: chr8:30843048:30843149:-|CDS|ENSG00000133863|unk|total|mutant (ssRNA)
RNA: GGGAGUUCUACAGUCCGACGAUCGGAUACUAUAAUUGCUUCCAGAAAGUCAGAUCAUCCAAUAAACGAAGCAACAAUCCGCACCGAAAAUUCUAAAUUUAACAGUAAUUUGCUUGCACACCCAGAUAUUUGUUGUAUCCGUGACAACAGAGGAUUGAGCAUCA
B14: ENSG00000162599:stop:overlap|stop_codon|ENSG00000162599|stop_codon|NA|stop_codon (ssRNA)
RNA: GGGAGUUCUACAGUCCGACGAUCUCACACAGCAUCACCGACCUGUCAUUACAGGACCCAGAGCUUUUCUUUGGAGCCUCCCAUAGAAGAGAGACUGGGAUUUAAAGGCUGAUGCCAGAAAGCAAAAGCUAACGUGAAAAGAAUCAACAGAGGAUUGAGCAUCA
B15: ENSG00000076706:stop:overlap|stop_codon|ENSG00000076706|stop_codon|NA|stop_codon (ssRNA)
RNA: GGGAGUUCUACAGUCCGACGAUCGCAGCGGUGACAAGAGGGCUCCGGGAGACCAGGGAGAGAAAUACAUCGAUCUGAGGCAUUAGCCCCGAAUCACUUCAGCUCCCUUCCCUGCCUGGACCAUUCCCAGCUCCCUGCUCACUCCAACAGAGGAUUGAGCAUCA
B16: chrX:52926401:52927765:-|three_prime_utr|ENSG00000268350|control|control|control (ssRNA)
RNA: GGGAGUUCUACAGUCCGACGAUCUUGUUUGUAAUCAUAAAUUUGUGAGCCUAAGCUACUGCAAAGGAAACUGGCCAGGUUAUUAGCCCAAAUGAAGGCAGUGGGUAACUUGGGUUUAGCCCCAACACCAGCCGCACCUAGGAACAACAGAGGAUUGAGCAUCA
B17: chr6:56056589:56057844:-|three_prime_utr|ENSG00000124749|control|control|control (ssRNA)
RNA: GGGAGUUCUACAGUCCGACGAUCAAACCUGGAAUCCAAGGGCAACCAGGCCCCCCAGGCAUCUGCGACCCAUCACUAUGUUUUAGUGUAAUUGCCAGAAGAGAUCCGUUCAGAAAAGGACCAAACUAUUAGUGUCUGAUGCCUCAACAGAGGAUUGAGCAUCA
B18: chr16:55506527:55506628:+|3pUTR|ENSG00000087245|msi1|FALSE|unique (ssRNA)
RNA: GGGAGUUCUACAGUCCGACGAUCUAUCAGUUUUAAUGCUACUACUAACAAUGAACAGUAACAAUAAUAUCCCCCUCAAUUAAUAGAGUGCUUUCUAUGUGCAAGGCACUUUUCACGUGUCACCUAUUUUAACCUUUCCAACCACAACAGAGGAUUGAGCAUCA
B19: chr8:8785477:8785578:-|3pUTR|ENSG00000147324|msi1|total|mutant (ssRNA)
RNA: GGGAGUUCUACAGUCCGACGAUCUGUUUAUCUUUAUUUUUAUAAUAUGCAAAUACAUUUAAAUUUAUACAGUUUGAAGCUUCCCGCGUCCGUUCACACUGGGUGCAAUAUUCUGCAUGAGAACUGUGCCAAGAUGGGGCUGAUCAACAGAGGAUUGAGCAUCA
B20: chr7:101206146:101206247:-|3pUTR|ENSG00000106397|msi1|FALSE|unique (ssRNA)
RNA: GGGAGUUCUACAGUCCGACGAUCCUUUGUCGACCCCUGACACUCAACCACUCUGCCAAACCUGCCCUGCCAUUGUGCCUUUUUAGGGGGCCUGGCCCCCGUCCUGGGAGUUGGGGGAUGGGUCUCUCUGUCUCCCCACUUCCUCAACAGAGGAUUGAGCAUCA
B21: chr14:21351797:21351898:-|3pUTR|ENSG00000092201|msi1|FALSE|unique (ssRNA)
RNA: GGGAGUUCUACAGUCCGACGAUCGAGGAAGGCUCAAAGGAGUCAACAUUUAUAUCUGGAAGGGACAAGUCAUGCCUUGGGCCUAGAAUACCCUGAUGAGAAAAGAGAAGAGGAAGGGAGGCCAUAUCUACAACACAGCCUCUCCAACAGAGGAUUGAGCAUCA
B22: chr6:13639604:13639705:-|CDS|ENSG00000010017|unk|total|mutant (ssRNA)
RNA: GGGAGUUCUACAGUCCGACGAUCGACCGUGAAGUACGAUGUUUGGGAGGCCGAAGUCCAAAGUCUCAAGACAGUUAUCCUGUCCGUCCUCGACCUUUCCGCCGUCCAAGUAUGAGCCCCAGCCAUGGAAUGAAUAUCCACAAUCAACAGAGGAUUGAGCAUCA

molecular target: T1, UNK ZnF1-6 (called full-length); experiment: nsRBNS (natural sequence RNA bind-n-seq); RBNS binding buffer (assumed for nsRBNS): 25 mM Tris pH 7.5, 150 mM KCl, 3 mM MgCl2, 0.01% Triton X-100, 500 ug/ml BSA, 20 U/ml SUPERase-In, 4 C; UNK is unkempt and MSI1 is Musashi-1; names of the RNAs are library labels; protein concentration not given here; high values mean tight binding

| Binder | binding signal |
| --- | --- |
| B1 | 0.473 enrichment R |
| B2 | 0.271 enrichment R |
| B3 | 0.531 enrichment R |
| B4 | 0.665 enrichment R |
| B5 | 0.289 enrichment R |
| B6 | 0.875 enrichment R |
| B7 | 0.257 enrichment R |
| B8 | 0.611 enrichment R |
| B9 | 0.462 enrichment R |
| B10 | 0.357 enrichment R |
| B11 | 0.611 enrichment R |
| B12 | 1.36 enrichment R |
| B13 | 0.47 enrichment R |
| B14 | 1.15 enrichment R |
| B15 | 1.17 enrichment R |
| B16 | 0.424 enrichment R |
| B17 | 1.06 enrichment R |
| B18 | 0.763 enrichment R |
| B19 | 0.721 enrichment R |
| B20 | 0.84 enrichment R |
| B21 | 1.55 enrichment R |
| B22 | 0.498 enrichment R |
